Experimental findings from paper PMC6212790 are described below.

This is one part of the list. At the low end of the ranking the order means little.

This assay deals with T1, GST-Rok-C97-191 (UniProt O34857).
T1 sequence: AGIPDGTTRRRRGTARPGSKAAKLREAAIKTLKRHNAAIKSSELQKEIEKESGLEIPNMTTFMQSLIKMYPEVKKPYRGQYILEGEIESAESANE
Kind of assay: protein binding microarray.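 Also: rank score from −0.5 (least bound) to 0.5 (best bound).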 The conditions noted are these: Rok is a gene silencer of Bacillus subtilis; high values mean tight binding; most listed sequences are background and not binding sites; double strand, one strand shown.
In the case of CAACTTCC, the binding signal was 0.00507 E-score.

AGAGTATG came in with a binding signal of 0.000327 E-score.

AACAGGCT: the binding signal is -0.162 E-score.

Turning to ATTGTGCG, the binding signal was determined as 0.189 E-score.

Take AGTGATCG: the binding signal is -0.122 E-score.

The sequence ACGGCTAC showed a binding signal of -0.148 E-score.

CTCTATGA registered a binding signal of 0.0427 E-score.

Consider TAGCTAGA, for which the binding signal amounted to 0.192 E-score.

In turn, GCTAAGCA registered a binding signal of -0.0119 E-score.

In turn, CGGGCTAG gave a binding signal of -0.177 E-score.

For the sequence AACGCGGT, the binding signal is -0.112 E-score.

On to AGCGATGA, for which the binding signal is -0.0838 E-score.

AGTGTAGG gave a binding signal of 0.0625 E-score.

With GAAGTGTA, the binding signal was 0.11 E-score.

In turn, AGGATCGA showed a binding signal of 0.152 E-score.

The sequence TCATTCGA yielded a binding signal of -0.0739 E-score.

With CCGCATTC, the binding signal worked out at 0.0507 E-score.

Sequence ATAAGCAT had a binding signal of 0.114 E-score.

In turn, AGTCAGAC yielded a binding signal of -0.121 E-score.

Regarding AGACACCG, the binding signal was -0.228 E-score.

In turn, AGCAAATC displayed a binding signal of -0.0398 E-score.

As for ATCTATGC, the binding signal was -0.0314 E-score.

For the sequence ACCCCGAA, the binding signal is -0.306 E-score.

Sequence GTACCGGA came in with a binding signal of 0.0446 E-score.

TCGTAGAA had a binding signal of 0.236 E-score.

For the sequence ACCTTGAT, the binding signal was determined as 0.106 E-score.

With CCTCCCTC, the binding signal was -0.133 E-score.

In turn, CGTCTTCC displayed a binding signal of -0.286 E-score.

Consider ATATTTGA, for which the binding signal was 0.082 E-score.

AGTCTCTC displayed a binding signal of -0.0911 E-score.

Sequence GGTATAGA gave a binding signal of 0.221 E-score.

ATCACACC registered a binding signal of -0.0624 E-score.

In the case of CCCGGCTA, the binding signal is -0.0894 E-score.

As to ATTGCAGG, the binding signal is -0.207 E-score.

As for ACTCAGCT, the binding signal was -0.0323 E-score.

As to ATAACGAG, the binding signal amounted to 0.102 E-score.

As for CGTCCAGA, the binding signal is -0.164 E-score.

Sequence CCTGCGAA returned a binding signal of -0.172 E-score.

CTCTAATC came in with a binding signal of 0.0499 E-score.

CTCCCCAA registered a binding signal of -0.222 E-score.

On to AAGTCTGC, for which the binding signal was determined as 0.00543 E-score.

Sequence GCAAAGGC displayed a binding signal of -0.228 E-score.

TACTGTAA gave a binding signal of 0.323 E-score.

Regarding TCGGCCGA, the binding signal is -0.374 E-score.

The sequence CAGCTTCG registered a binding signal of -0.0599 E-score.

For GAAGGAAA, the binding signal is -0.238 E-score.

In turn, CGTTACCA returned a binding signal of 0.258 E-score.

Regarding GTCAGGCA, the binding signal was -0.163 E-score.

With TCTACCAA, the binding signal is 0.315 E-score.

Turning to TATTAGAA, the binding signal was determined as 0.293 E-score.

In turn, ACCTGCCA had a binding signal of -0.295 E-score.

In the case of ACCCGCAT, the binding signal is -0.181 E-score.

GGCTAAAC gave a binding signal of -0.0896 E-score.

Sequence CGGCAAAA returned a binding signal of -0.0738 E-score.

Sequence ACCAAACT yielded a binding signal of 0.259 E-score.

With AGGGTGCG, the binding signal is -0.184 E-score.

In turn, AAGGGGCA yielded a binding signal of -0.234 E-score.

Turning to TGAGTGCA, the binding signal was -0.0754 E-score.

The sequence AAAACAGA yielded a binding signal of 0.0436 E-score.

Sequence TCAAGAAA displayed a binding signal of -0.0225 E-score.

ACAGAAGC: the binding signal is -0.0456 E-score.

GTCCGGTA: the binding signal was -0.0421 E-score.

The sequence CAACCGGA returned a binding signal of -0.237 E-score.

Sequence ACCGTGGA had a binding signal of -0.011 E-score.

Sequence GGAATCCC gave a binding signal of -0.086 E-score.

AGACGAGG: the binding signal is -0.237 E-score.

CGCAAATA came in with a binding signal of 0.178 E-score.

As for CTCCGAAC, the binding signal was -0.207 E-score.

CATTTCGA gave a binding signal of -0.0901 E-score.

In turn, ACCATCAC came in with a binding signal of 0.052 E-score.

The sequence GCACTGAA yielded a binding signal of -0.138 E-score.

For the sequence CGGATAGC, the binding signal stood at 0.0167 E-score.

In the case of CCGTATTC, the binding signal was determined as 0.0694 E-score.

Turning to CATGACGG, the binding signal was -0.0455 E-score.

ACTTGGTA: the binding signal was 0.0663 E-score.

Sequence CCCAGGAC came in with a binding signal of -0.194 E-score.

Take AAAAGCAT: the binding signal is -0.052 E-score.

GAAAGGAC gave a binding signal of -0.224 E-score.

Sequence AAACGTAT yielded a binding signal of 0.307 E-score.

As for GAATACTA, the binding signal was determined as 0.209 E-score.

CCTAAGGC gave a binding signal of -0.0966 E-score.

Sequence AAGAGGCG showed a binding signal of -0.171 E-score.

On to GGAGGAGA, for which the binding signal was -0.18 E-score.

Take ATGCGCCA: the binding signal was -0.032 E-score.

CGCAAGGA had a binding signal of -0.288 E-score.

The sequence TACCTTAA registered a binding signal of 0.207 E-score.

For AATCCTTA, the binding signal came out at 0.107 E-score.

For the sequence GCCGCTTA, the binding signal was -0.148 E-score.

As for CAAACTGA, the binding signal was -0.143 E-score.

As to TCTGCAGA, the binding signal is 0.0564 E-score.

Take CGGCACAC: the binding signal was -0.139 E-score.

ACCTGAGC registered a binding signal of -0.097 E-score.

The sequence ACGATAGA displayed a binding signal of 0.208 E-score.

For CCCTACAG, the binding signal is -0.152 E-score.

With ATGGCCAA, the binding signal was 0.217 E-score.

As to GCGGGAGC, the binding signal was -0.303 E-score.

AATATTAC registered a binding signal of 0.284 E-score.

Turning to GACGGTGA, the binding signal is -0.0734 E-score.

ATGTCGCC registered a binding signal of -0.0714 E-score.

In turn, GCCTGGCC gave a binding signal of -0.301 E-score.

Take CAGGGGCA: the binding signal is -0.267 E-score.

Turning to TATATGGA, the binding signal was 0.343 E-score.

Regarding AATTAAAG, the binding signal was 0.143 E-score.

In turn, GGCCCAAC had a binding signal of -0.254 E-score.

For ATCGGTCA, the binding signal was 0.0708 E-score.

Turning to GCCATCTA, the binding signal was found to be 0.0264 E-score.

The sequence CTTGGCTC showed a binding signal of -0.0982 E-score.

On to TACTACCA, for which the binding signal stood at 0.404 E-score.

ATTGTTAC displayed a binding signal of 0.143 E-score.

CGCGATCC returned a binding signal of -0.11 E-score.

On to GAGATTCC, for which the binding signal was -0.0406 E-score.

As for ACGCGGCT, the binding signal was -0.308 E-score.

As to AAATCCCA, the binding signal was found to be 0.123 E-score.

In turn, ACCCATTG registered a binding signal of -0.0987 E-score.

AAACATGG came in with a binding signal of -0.0577 E-score.

The sequence CATATAGG registered a binding signal of 0.117 E-score.

As for CAACCATA, the binding signal is -0.187 E-score.

The sequence CTCGCCCC displayed a binding signal of -0.222 E-score.

CTATCTAC had a binding signal of 0.433 E-score.

The sequence CGTCCTGA returned a binding signal of -0.135 E-score.

CCCGAGGA came in with a binding signal of -0.129 E-score.

For ATCAACAC, the binding signal is -0.0158 E-score.

In turn, ATGTTAAT showed a binding signal of 0.169 E-score.

In turn, CCGTATAG gave a binding signal of -0.0288 E-score.

For TCACTTCA, the binding signal was -0.11 E-score.

The sequence TGAGGCCA registered a binding signal of -0.304 E-score.

The sequence GTGAGGGA returned a binding signal of 0.0641 E-score.

For GCGGCAAA, the binding signal is -0.0471 E-score.

With AGCATGGA, the binding signal amounted to 0.105 E-score.

AAAACCGA showed a binding signal of 0.0507 E-score.

As to ATGAGGTA, the binding signal is 0.112 E-score.

The sequence AGAGCCTC registered a binding signal of -0.282 E-score.

For the sequence GTGTCTAA, the binding signal was -0.0421 E-score.

The sequence GGAGCCCC yielded a binding signal of -0.349 E-score.

As for GCGCAAGA, the binding signal is -0.093 E-score.

Take CCCTACCA: the binding signal worked out at 0.0486 E-score.

In the case of TCATTCCA, the binding signal was -0.0328 E-score.

CTACTCGA showed a binding signal of 0.136 E-score.

Sequence CCCGTGCA yielded a binding signal of -0.0457 E-score.

In turn, GACACAAC returned a binding signal of -0.15 E-score.

Turning to GCCTATGA, the binding signal is -0.044 E-score.

In the case of AGCTCCCA, the binding signal is -0.218 E-score.

In turn, AGGCTACA showed a binding signal of -0.0622 E-score.

Sequence AAATCTTC came in with a binding signal of 0.0559 E-score.

ATCAAATG displayed a binding signal of -0.0733 E-score.

ACATTCTG: the binding signal is -0.0417 E-score.

AATATGTG showed a binding signal of 0.199 E-score.

CACGGAAG gave a binding signal of 0.00148 E-score.

The sequence CACACCAC showed a binding signal of 0.0104 E-score.

GTCGGATA returned a binding signal of 0.0236 E-score.

In the case of CAGGCGGA, the binding signal was -0.16 E-score.

Turning to GTAGAGGA, the binding signal was -0.0267 E-score.

In turn, ACCGAAGA came in with a binding signal of 0.134 E-score.

Take CTCGATCC: the binding signal was found to be 0.0526 E-score.

For the sequence CGGGCAGA, the binding signal was -0.312 E-score.

Sequence GACTTTTA returned a binding signal of 0.201 E-score.

Take CTACTGCC: the binding signal worked out at 0.0173 E-score.

CTAAGCAG: the binding signal is -0.253 E-score.

For ACATCGTG, the binding signal is -0.0131 E-score.

As for AATCTAGC, the binding signal came to 0.234 E-score.

The sequence GCAAGGGA gave a binding signal of -0.166 E-score.

CATAGAGA showed a binding signal of 0.0156 E-score.

TCGAATCA showed a binding signal of -0.12 E-score.

In the case of ATTTATAG, the binding signal was 0.358 E-score.

The sequence GAAGGTGC had a binding signal of -0.236 E-score.

AATGATAC had a binding signal of 0.22 E-score.

For TAAATCAA, the binding signal is 0.178 E-score.

Regarding GTCGTTAA, the binding signal was 0.136 E-score.

Consider GCAGCACA, for which the binding signal is -0.15 E-score.

In the case of GAGGCCTA, the binding signal came out at 0.0148 E-score.

Regarding CGACGGAA, the binding signal amounted to 0.00138 E-score.

With CCCTTCCA, the binding signal is -0.249 E-score.
